In the RNAGym collection of RNA variant scans (doi:10.1073/pnas.2313332121):
Variants at the floor of the assay are shown more often than the library holds them.

B1: TPR 5TU (parent)
chain: GGAUCUUCUCGAUCUAACAAAAAAGACAAAUCUGCCACAAAGCUUGAGAGCAUCUUCGGAUGCAGAGGCGGCAGCCUUCGGUGGCGCGAUAGCGCCAACGUUCUCAACUAUGACACGCAAAACGCGUGCUCCGUUGAAUGGAGUUUAUCAUG

Variants of: B1
Assay: polymerase ribozyme fitness, log enrichment relative to wild type (log ratio); higher = more active; in vitro selection for triplet polymerase activity
Outline: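 Fitness is a logarithmic measure of how a genotype enriched relative to the wild type, with replicate averages weighted by inverse variance. The logarithm uses base 2, and enrichment came from Illumina sequencing of input and output libraries. Those libraries were PCR-built, transcribed mutants of each subunit of a heterodimeric triplet polymerase ribozyme, passed through one triplicate in vitro selection round that included frozen incubation at −7 °C, gel excision of extended constructs and streptavidin-bead capture. Genotypes were kept only if they had ≥10 input reads and ≥1 read per output.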

GGAUCUUCUCGAUCUAACAAAAAAGACAAAUCUGCCACAAAGCUUGAGAACAUCUUCGGAUCCAGAGGCGGCGGCCUUCGGUGGCGCGAUAGCGCCAACGUACUCAACUAUGACACGCAAAACGCGUGCUCCGUUGAAUGGAGUUCAUCAUG [G50A G62C A73G U102A U146C] and GGAUCUUCUCGAUCUAACAAAAAAGACAAAUCUGCCACAAAGCUUGAGAACAUCUUCGGAUGCAGAAGCGGCAACCUUCGGUGGCGCGAUAGCGCGAACGUUCUCAACUAUGACACGCAAAACGCGUGCUCCGUUGAAUGGAGUUUAUCAUG [G50A G67A G74A C96G] cannot be ordered by “polymerase ribozyme fitness (log ratio)” value: ≤ -4.2 for the first, ≤ -4.2 for the second.

GGAUCUUCUCGAUCUAACAAAAAAGACAAAUCUGCCACAAAGCUUGAGAACAUCUUCGGAUGCAGACGCGGCAGCCUUCUGUGGCGCGAUUGCGUCAACGUUCUCAACUAUGACACGCAAAACGGGUGCUCCCUUGAAUGGAGUUUAACAUG [G50A G67C G80U A91U C95U C125G G133C U148A] and GGAUCUUCUCGAUCUAACAAAAAAGACAAAUCUGCCACAAAGCUUGAGAACAUCUUCGGAUGCAGAGACGGCAGCAUUCGGUGGCGCGAUACUGCCAACGUUCUCAACUAUGACACGCAAAACGCGUGCUCCGUUGAAUGGAGUUUAUCAUG [G50A G68A C76A G92C C93U] cannot be ordered by “polymerase ribozyme fitness (log ratio)” value: ≤ -4.2 for the first, ≤ -4.2 for the second.

GGAUCUUCUCGAUCUAACAAAAAAGACAAAUCUGCCACAAAGCUUGAGAACAUCUUCGGAUGCAGAGGCGGCAUCCUUCGGUGGCGCGAUAGCGCCAACGUUCUCAACUAUGACACGCAAAACGCGUGCUCCGUUGAAUGCAGUUUAUCAUG [G50A G74U G141C] and GGAUCUUCUCGAUCUAACAAAAAAGACAAAUCUGCCACAAAGCUUGAGAACAUCUUCGGAUGCAGAGGCGGCAGCCUUCCGUGGCGAGAUAGCGCCAACCUUCUCAACUAUGACACGCAAAACGCGUGCUCCGUUGAAUGGAGUUUAUCAUA [G50A G80C C87A G100C G152A] cannot be ordered by “polymerase ribozyme fitness (log ratio)” value: ≤ -4.2 for the first, ≤ -4.2 for the second.

GGAUCUUCUCGAUCUAACAAAAAAGACAAAUCUGCCACAAAGCUUGAGAACAUCUUCGGAUGCAGAGGCGGCAGCCUUCGGUAGCGAGAUAGGGCCAACUUUCUCAACUAUGACACGCAAAACGCGUGCUCAGUUGAAUGGAGUUUAUCAUG [G50A G83A C87A C93G G100U C132A] and GGAUCUUCUCGAUCUAACAAAAAAGACAAAUCUGCCACAAAGCUUGAGAACAUCUUCGGAUGCAGAGGCGGCAGCCUUCGGUCGAGCGACAGCGCCAACGUUCUCAACUAUGACACGCAAAACGCGUGCUCCGUUGAAUGGAGUUUAUCAUG [G50A G83C C85A U90C] cannot be ordered by “polymerase ribozyme fitness (log ratio)” value: ≤ -4.2 for the first, ≤ -4.2 for the second.

GGAUCUUCUCGAUCUAACAAAAAAGACAAAUCUGCCACAAAGCUUGAGAACAUCUUCGGAUGCAGAGGCGGCAGCCUUCGGUGGCGCGAUAACGCCAACGUUCUCAACUAUGACACGCAAAACGCGUGAUCCGUUGAAUGGAGUUUAUCAUG [G50A G92A C129A] and GGAUCUUCUCGAUCUAACAAAAAAGACAAAUCUGCCACAAAGCUUGAGAACAUCUUCGGAUGCAGAGGCGGCAGCCUUCGGUGGCGCGAUACCGCCGACGUUCUCAAGUAUGACACGCAGAACGCGUGCUCCGGUGAAUGGAGUUUAUCAUG [G50A G92C A97G C108G A120G U134G] cannot be ordered by “polymerase ribozyme fitness (log ratio)” value: ≤ -4.2 for the first, ≤ -4.2 for the second.

Compared with GGAUCUUCUCGAUCUAACAAAAAAGACAAAUCUGCCACAAAGCUUGAGAACAUCUUCGGAUGCAGAGGCGGCAGCCUUCGGUGGCGCGAUACCGCCAACGUUCUCAAUUAUGACACGCAAAACGCGUGCUCCGUUGAAUGGAGUUUAUCAUG [G50A G92C C108U], GGAUCUUCUCGAUCUAACAAAAAAGACAAAUCUGCCACAAAGCUUGAGAACAUCUUCGGAUGCAGAGGCGGCAGCCUUCGGUGGCGCGAUAGCUCCAACGUUCUCAACUAUGACACGCAAAACGCGUGCUCCGUUGAAUGGAGUUUAUCAUG [G50A G94U] is higher in “polymerase ribozyme fitness (log ratio)” value: ≤ -4.2 for the first, -3.07 for the second.

First: GGAUCUUCUCGAUCUAACAAAAAAGACAAAUCUGCCACAAAGCUUGAGAACAUCUUCGGAUGCAGAGGCGGCAGCCUUCGGUGGCGCGAUAGCGCCAACGUUCUCAACUAUGACACGCAAAACGCGUGCUCCCUUGAAUGGAGUUUAUCAUG [G50A G133C]
Second: GGAUCUUCUCGAUCUAACAAAAAAGACAAAUCUGCCACAAAGCUUGAGAACAUCUUCGGAUGCAGAGGCGGCAGCCUUCGGUGGCGCGAUAGCGCCAACGUUCUCAACUAUGACACGCAAAACGCGUGCUCCGUUGAAUCGAGUUUAUCAUG [G50A G140C]
The “polymerase ribozyme fitness (log ratio)” value of the first is higher: -3.28 for the first, ≤ -4.2 for the second.

GGAUCUUCUCGAUCUAACAAAAAAGACAAAUCUGCCACAAAGCUUGAGAACAACUUCGGAUGCAGAGGCGGCAGCCUUCGGUGGGGCGAUAGCGCCAACGUUCUCAACUAUGACACGCAAAACGCGUGCUCCGUUGAAUGGAGUUUAUCAUG [G50A U53A C85G] and GGAUCUUCUCGAUCUAACAAAAAAGACAAAUCUGCCACAAAGCUUGAGAACAGCUUCGGAUGCAGAGGCGGCAGCCUUCGGUGGCGCGAUAGCGCCAAUGUUCUCAACUAGGACACGCAUAACGCGUGCUCCGUUGAAUGGAGUUUAUCAUG [G50A U53G C99U U111G A120U] cannot be ordered by “polymerase ribozyme fitness (log ratio)” value: ≤ -4.2 for the first, ≤ -4.2 for the second.

First: GGAUCUUCUCGAUCUAACAAAAAAGACAAAUCUGCCACAAAGCUUGAGAACAUCAUCGGAUGCAGAGGCGGCAGCCUUCGGUGGCGCGAUAGCGCCAACGUUCUCAACUAUGACACGCAAAACGCGUGCUCCGUUGAAUGGAGUUUAUCAUG [G50A U55A]
Second: GGAUCUUCUCGAUCUAACAAAAAAGACAAAUCUGCCACAAAGCUUGAGAACAUCAUCGGAUGCAGAGGCGGCAGCCUUCGGUGGCGCGAUAGCGCCCACGUUCUCAACUAUGACACGCAAAACGCGUGCUCCGUUGAAUGGAGUUUUACAUG [G50A U55A A97C A147U U148A]
The “polymerase ribozyme fitness (log ratio)” value of the first is higher: -1.34 for the first, ≤ -4.2 for the second.

In the case of GGAUCUUCUCGAUCUAACAAAAAAGACAAAUCUGCCACAAAGCUUGAGAACAUCAUCGGAUGCAGAGGCGGCAGCCUUCGGUAGGGCGAUAGCGCCAACGUUCUCAACUAUGACACGCAAAACGCGUGCUCCGUUGAAUGGAGUUUAUCAUG [G50A U55A G83A C85G], the “polymerase ribozyme fitness (log ratio)” value is reported as ≤ -4.2.
